PMC2922422 (Neuropsychopharmacology : official publication of the …, 2010)

System: Wistar rats
Experiment: intravenous cocaine self-administration, short
Settings: ShA rats, 1 h session; 20 and 40 mg/kg i.p., 60 min pretreatment, vs vehicle

SMILES: Cc1c(OCc2cccc(-c3ccc(C(=O)[O-])cc3)c2)cc2c(c1C)C(=O)C(C1CCCC1)C2.[K+] (stereo not shown) [BINA, potassium 3′-([2-cyclopentyl-6-7-dimethyl-1-oxo-2,3-dihydro-1H-inden-5yloxy]methyl)biphenyll-4-carboxylate]
- cocaine self-administration (infusions earned, % of baseline): significant decrease in cocaine intake
